Sequences with one replicate were seen in a single cluster, so their values are uncertain.
system: ATP; assay: switch fluorescence ratio, 500 uM ATP over buffer (Cy3 cluster intensity, sum of 5 cycles each) (fold (ratio)); higher = stronger signal-on switching upon ATP binding; sequences stand for … in TCGTCGGCAGCGTCAGATGTGTATAAGAGACAGTTTTTTTTTTTTTTTTTTTTTTTTT…TC; details: aptamer strand: ATP DNA aptamer (quencher-CACCTGGGGGAGTATTGCGGAGGAAGG + anchor), 100 nM annealed; ATP concentration: 500 uM; one replicate
Outline: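 Cy3-labelled switching-strand clusters on a modified Illumina MiSeq flow-cell were annealed to 100 nM quencher-labelled ATP aptamer, imaged in selection buffer, then imaged after 15 min with 500 uM ATP at 22 °C. Five buffer/ATP cycles ran, with NaOH stripping and re-annealing between them. The fluorescence ratio is summed target-cycle over summed buffer-cycle Cy3 intensity per cluster, averaged per switch-domain sequence. Clusters outside 100-1000 RFU were excluded.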
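Also: ATP exposure 15 min at 22 °C before imaging.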

Sequence	switch fluorescence ratio
CACGATGTTT	0.992
CACGCACGCC	1.8
CACGCTACGA	1.64
CACGGAACAT	1.02
CACGGATACC	1.23
CACGGCCGGC	1.01
CACGGGCACC	1.06
CACGGGTTGG	0.977
CACGGTCCTA	0.978
CACGGTCTTA	1.05
CACGGTTGGT	0.995
CACGGTTTAT	1.04
CACGTAACCC	1.43
CACGTAAGCG	1.09
CACGTAAGTT	1.13
CACGTACATT	1.41
CACGTACCAG	1.65
CACGTAGTCC	1.06
CACGTCAGCG	1.04
CACGTCTAGT	0.997
CACGTCTTAA	0.98
CACGTGCGCT	1.03
CACGTTTTCC	1.17
CACTAAAATT	0.967
CACTAAATAT	1.05

Sequence	switch fluorescence ratio
CACTAACTGA	1.12
CACTAATGTA	1.01
CACTAATTCT	1.01
CACTACATTT	1.07
CACTATCATT	1
CACTATTAAT	1.02
CACTATTGCA	1.04
CACTCACTCG	1.13
CACTCAGAGC	0.964
CACTCAGCAG	2.02
CACTCTACTC	1.36
CACTGAATGG	0.982
CACTGCGGTT	1.05
CACTGCTGAC	2.47
CACTGGTTCT	1.02
CACTGTAATA	1.3
CACTGTGCTG	0.973
CACTGTGGTC	1.01
CACTTACTCT	1.2
CACTTCAAAT	0.977
CACTTCAGTT	0.993
CACTTCTCCG	2.25
CACTTCTTAC	1.14
CACTTCTTTA	1.03
CACTTGAATT	0.995

Sequence	switch fluorescence ratio
CACTTGCAGG	1.03
CACTTGCTAG	1
CACTTGGGT	0.949
CAGAAACCCT	1.11
CAGAAAGGGA	1.03
CAGAAATGTC	1.11
CAGAAGAAGA	0.998
CAGAAGCGTT	1.06
CAGAAGTGCC	1.04
CAGAAGTTGC	1.1
CAGAATGGTA	0.929
CAGAATGTGT	1.04
CAGACCTGGC	0.894
CAGACGGCTT	1.01
CAGACGTATT	1.15
CAGACTACGG	1.02
CAGACTCCGC	3.68
CAGACTTACT	1.19
CAGACTTGCC	1.07
CAGAGAATGG	1.02
CAGAGGACGT	0.966
CAGAGGGAGT	0.953
CAGAGGGATA	3.13
CAGAGTCCGG	1.04
CAGATAACAC	1.06

Sequence	switch fluorescence ratio
CAGATAACAG	1.01
CAGATAGGT	0.984
CAGATAGTCG	0.954
CAGATGGGTT	1.01
CAGATTCTTG	0.979
CAGCACCGGT	0.993
CAGCACGGCA	1.1
CAGCAGAGAT	1.06
CAGCAGGAAA	1.01
CAGCAGTGGA	0.997
CAGCCAAGTT	0.973
CAGCCACTCG	1.09
CAGCCGATGA	1.04
CAGCCGGCGG	0.958
CAGCCGGTCG	0.992
CAGCCTAACT	1.02
CAGCGAAAAT	1.02
CAGCGAAGAA	0.988
CAGCGACGA	1.02
CAGCGATAAT	1.51
CAGCGGTGGA	1.05
CAGCGTAAAT	1.03
CAGCGTGTTG	1.05
CAGCTAGCTC	1.01
CAGCTAGTGC	1.12

Sequence	switch fluorescence ratio
CAGCTCCTTC	1.03
CAGCTGAACA	1.03
CAGCTGGTT	0.997
CAGCTTATCC	1.09
CAGCTTCGGC	0.959
CAGGAAAAAG	1.02
CAGGAAGTGC	1.06
CAGGAAGTTG	1.06
CAGGACCCCA	1.05
CAGGAGCCAC	2.11
CAGGAGGGAT	1
CAGGCAGAGA	0.961
CAGGCAGAGT	1.01
CAGGCCTATT	1.03
CAGGCCTGCA	0.97
CAGGCCTTCC	2.66
CAGGCGCCCT	0.987
CAGGCGGATC	0.973
CAGGCTGAAC	0.948
CAGGGACGTG	1.03
CAGGGATGGC	0.968
CAGGGCAGAC	1.51
CAGGGCGATG	1
CAGGGGACGG	1.06
CAGGGGGATC	1.01

Sequence	switch fluorescence ratio
CAGGGGTCG	1.03
CAGGGGTGTT	1.08
CAGGGTCCCG	1.05
CAGGTACCAG	1.03
CAGGTAGGTC	1.05
CAGGTAGTCG	0.966
CAGGTCAAGT	1.01
CAGGTCCCGA	0.985
CAGGTCGG	1.06
CAGGTCTACC	0.995
CAGGTGCGAG	1.01
CAGGTGCTAT	2.17
CAGGTGGCGC	1.07
CAGGTGTGAG	1.03
CAGGTTACGA	1.01
CAGGTTTCAG	0.982
CAGTAATGGC	1.06
CAGTACCGGT	1.06
CAGTACTGCC	1.08
CAGTAGAGGC	1.04
CAGTAGCCGC	1.07
CAGTAGGGAC	1.01
CAGTAGGGCC	1.05
CAGTATACTA	1.03
CAGTATAGGG	1.09

Sequence	switch fluorescence ratio
CAGTATTGAG	1.01
CAGTATTTAA	1.02
CAGTCATCCC	1.04
CAGTCCAACG	1.02
CAGTCCGGTT	1.02
CAGTCTCTAG	0.979
CAGTGAGCAA	3.69
CAGTGAGGGC	0.988
CAGTGTTTAC	1.02
CAGTTACAGC	1.05
CAGTTACCTC	1.07
CAGTTAGTGC	1.01
CAGTTATTCT	0.995
CAGTTCAGGT	1.01
CAGTTCATAC	1.19
CAGTTCGCGG	1.02
CAGTTGGAAG	1.01
CAGTTGGTCA	1
CAGTTGGTCC	0.966
CAGTTTGGT	1.02
CATAAACACA	1.01
CATAACGCA	1.35
CATAACGGAG	1.04
CATAACTCTT	1.04
CATAAGCGTT	0.995

Sequence	switch fluorescence ratio
CATAAGGAAC	1.03
CATAAGGGGC	1.02
CATAAGTTC	1.07
CATAATGGAT	1.04
CATAATTCAC	1.06
CATACACCCT	1.33
CATACACCGA	1.09
CATACAGCAA	4.06
CATACATGTA	0.993
CATACCACAC	1.53
CATACCGGAC	1.93
CATACGATAC	2.95
CATACTCGAC	1.26
CATAGAACA	0.974
CATAGAACAG	1.02
CATAGAGGTG	1.07
CATAGGAATC	1.08
CATAGGCCCG	0.931
CATAGGGCGA	0.993
CATAGGTGT	1.21
CATAGTAAGC	1.1
CATAGTAGAG	1.05
CATAGTGCCA	1.01
CATATACCCT	1.09
CATATAGAAC	1.07
